The supplement of paper PMC10126150
Values marked as one replicate rest on one cluster of the flow cell; about a third of the high ones do not repeat.

Test system: ATP
Experiment: switch fluorescence ratio, 500 uM ATP over buffer (Cy3 cluster intensity, sum of 5 cycles each) (fold (ratio)); higher = stronger signal-on switching upon ATP binding; sequences stand for … in TCGTCGGCAGCGTCAGATGTGTATAAGAGACAGTTTTTTTTTTTTTTTTTTTTTTTTT…TC
Details: aptamer strand: ATP DNA aptamer (quencher-CACCTGGGGGAGTATTGCGGAGGAAGG + anchor), 100 nM annealed; ATP concentration: 500 uM; one replicate
In short: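 The quencher-labelled ATP aptamer, at 100 nM, was annealed to Cy3-labelled switching-strand clusters on a modified Illumina MiSeq flow-cell. The clusters were imaged in selection buffer, then after 15 min with 500 uM ATP at 22 °C, and this buffer/ATP cycle ran five times with NaOH stripping and re-annealing between runs. Per-cluster fluorescence ratios, summed target-cycle over summed buffer-cycle Cy3 intensity, were averaged per switch-domain sequence. Clusters outside 100-1000 RFU were excluded.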
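Further: ATP exposure 15 min at 22 °C before imaging.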

Sequence | switch fluorescence ratio
AACGTCTGAC | 1.08
GCCCAAAGCG | 1.01
TTTGAGCTT | 0.997
CTACGTGCA | 1.06
TCGACGCTAG | 1.1
ACGGCACTGA | 1.58
TGAGTTAAT | 0.999
TTTCGTGAAG | 1
TATGGCGCCG | 0.918
AGCCCGATGT | 1.01
TTAATCCAC | 1.08
GTTAGGGCGC | 0.988
GGAACATTAA | 0.994
ACATATTGTA | 1.06
GATACGGTGT | 1.02
GGGACCTAAA | 0.998
CTAACAAAAT | 1.03
GACACGTGAA | 1.07
GACGCCTTGA | 1.08
GCCTTGCCAG | 1.01
TTGAAAACAA | 0.979
GGACTGCCGG | 0.974
CCTCGGAATG | 2.96

Sequence | switch fluorescence ratio
AGCGAGGTAG | 0.962
GGTCTATTAT | 1.01
AGGCTGACTC | 1.1
TCGTGGACCA | 1.01
TACGTTTTTG | 1.17
GGGATAACGA | 1.01
ACCGGGGGAT | 1.18
ACGTTCCTGA | 1.07
GTCGTCTGCT | 1.06
TCAGCCGTGT | 0.992
GACGATCGTG | 0.961
CTGTCTGCAA | 6.15
TGGCATTGAT | 1.02
CGGGCCAATG | 1.04
GCCTAGCGGC | 1.06
GCCACGCACT | 1.56
GATGCTAGCT | 0.932
AAGGTTTGGA | 0.972
TCCAATAATT | 0.966
ACTACGTCCG | 1.11
GATGATACCA | 1.02
ACCACCATTT | 1.14
CCCATGAGTC | 1.09

Sequence | switch fluorescence ratio
TCAGCCCTCG | 0.979
GGCAGTGGCA | 1
CGGCTTCTTT | 0.979
ACTTTCGTAG | 1.11
CAATTGTGTG | 1.01
TGGATAGTTC | 0.994
AGAGGGTCGG | 1.03
TGCAATTTT | 1.1
AGATCGGGCA | 1.01
ATTGACAGA | 0.979
TCCTCGATAT | 1.79
TAGCCGGCTT | 0.993
ATGGAGCGTC | 1.03
ATGGGAGTTG | 0.996
TGACCTTGGT | 1.03
GTGCCGACCA | 1.02
CCCCCTGAAC | 1.67
GTTTGCAGAG | 1.06
ACGGGGACAG | 1.03
GGTACGGTCG | 1.03
ATCGGAGGCC | 1.06
CGAAATCGGC | 1.13
AAAACATAGT | 0.977

Sequence | switch fluorescence ratio
CACACGCGTG | 1.02
TTTTGTCGGG | 0.979
GAGATTAGAA | 0.997
GGATGAACGC | 1.01
AGTACTTTCG | 0.974
TGTTTGAACT | 0.973
GAGCTTTAT | 0.982
CAAAGGAGCC | 1.01
CCGCGTGGTG | 1.06
GCCCATACGG | 1.05
TTCGGAGAGC | 0.945
TGAGACTTCT | 1.02
CAATTTATGT | 0.939
CGTTGTTTCG | 1.03
AACCCCTTCT | 1.07
TTACCTATTA | 0.97
GAAAGTGGCA | 0.991
CACTATAAGT | 0.986
GTGTAAGTTT | 1.02
GGAACATTGG | 0.998
TTAAGCCTTC | 1.3
ACCTCTATGG | 1.03
GGGCTTTGA | 1.01

Sequence | switch fluorescence ratio
CGGATTATGC | 1.14
TAGGAGTACT | 1.02
GGGAGGTTAT | 1.03
GGCGGCCGG | 0.985
GAATTTGGTA | 0.994
ATGCGTCTGA | 1.1
ACGGGGAAGC | 1.01
TTCAGGCTAG | 0.971
GGGGTTTCGA | 0.998
GGGCCAAACC | 0.95
AGGTCAATGA | 1.01
ATACTCCGG | 1.32
GAGTACGCCC | 1.1
CAGATTTGAC | 0.992
AACCAACTAT | 1.05
TCCTAGTATA | 1.03
CCATAAACGT | 1.01
CTATATTTGG | 0.96
CAATAGAGGA | 1
CAAGGCTTT | 0.969
ACGGAGGGAG | 1.02
ATGAACGGGA | 1.08
TATTCTAACA | 1.03

Sequence | switch fluorescence ratio
ATATTATGC | 0.986
GAATTCAAC | 1.05
GGGAGCGATG | 1.07
TGTAAAAACC | 1.14
CAGACCGCAT | 4.68
TTGAATCAGG | 1.04
GTTTTCGCG | 1.07
TTGGCACCGG | 0.983
CATGCGAGAG | 1.05
AATTGGGGAA | 0.974
TCAGAAACT | 1.01
AAGTTATGTC | 1.12
AGAAAGGATA | 1.04
CTCATGGGTG | 1.25
GACGACACTA | 1.66
AACATCGCAT | 1.09
CTAATGCTAT | 0.999
TAGGGAGATT | 0.989
TTAAGACCAA | 0.996
TGAGCAGCTA | 1.01
GGCTCTCCAC | 1.06
TAAGGCCTTT | 0.972
CACCATTCA | 1.03

Sequence | switch fluorescence ratio
GTCTGATGTG | 1
TGAGTATTAA | 1.02
TTTTGCGTAA | 0.994
TGACCCCCAT | 6.39
TAGGGATACT | 1.01
CTTTGGGTGT | 1.3
TCGCCCGATA | 1.03
GGGCTCACTG | 1.01
GACAGCAT | 1.11
TGTCAGAGAG | 1.03
GCTGTAGTAG | 1.03
TTGTACATT | 1.04
TCATCCTAG | 1.07
TAGGCCCATA | 1.05
AGAGGAGGCG | 1.01
TGGAGTATAG | 1.04
TTTTGGGAC | 1.03
CAGGCGCTTT | 1.1
ATCGGCCGA | 1.01
TATTCGTTAA | 1.04
